# According to article PMC4336329 (PLoS ONE, 2015):
# Screen size: about 310,000 compounds; about 2,200 (0.71%) showed an effect of 50% or more. The effect is printed as a negative number. This is one part of the list.
# Target: human ether-à-go-go-related gene (hERG) potassium channel (human, UniProt Q12809)
# Assay: primary screen, population patch clamp on CHO cells stably expressing hERG
# Sequence of human ether-à-go-go-related gene (hERG) potassium channel (Q12809 whole entry, looked up): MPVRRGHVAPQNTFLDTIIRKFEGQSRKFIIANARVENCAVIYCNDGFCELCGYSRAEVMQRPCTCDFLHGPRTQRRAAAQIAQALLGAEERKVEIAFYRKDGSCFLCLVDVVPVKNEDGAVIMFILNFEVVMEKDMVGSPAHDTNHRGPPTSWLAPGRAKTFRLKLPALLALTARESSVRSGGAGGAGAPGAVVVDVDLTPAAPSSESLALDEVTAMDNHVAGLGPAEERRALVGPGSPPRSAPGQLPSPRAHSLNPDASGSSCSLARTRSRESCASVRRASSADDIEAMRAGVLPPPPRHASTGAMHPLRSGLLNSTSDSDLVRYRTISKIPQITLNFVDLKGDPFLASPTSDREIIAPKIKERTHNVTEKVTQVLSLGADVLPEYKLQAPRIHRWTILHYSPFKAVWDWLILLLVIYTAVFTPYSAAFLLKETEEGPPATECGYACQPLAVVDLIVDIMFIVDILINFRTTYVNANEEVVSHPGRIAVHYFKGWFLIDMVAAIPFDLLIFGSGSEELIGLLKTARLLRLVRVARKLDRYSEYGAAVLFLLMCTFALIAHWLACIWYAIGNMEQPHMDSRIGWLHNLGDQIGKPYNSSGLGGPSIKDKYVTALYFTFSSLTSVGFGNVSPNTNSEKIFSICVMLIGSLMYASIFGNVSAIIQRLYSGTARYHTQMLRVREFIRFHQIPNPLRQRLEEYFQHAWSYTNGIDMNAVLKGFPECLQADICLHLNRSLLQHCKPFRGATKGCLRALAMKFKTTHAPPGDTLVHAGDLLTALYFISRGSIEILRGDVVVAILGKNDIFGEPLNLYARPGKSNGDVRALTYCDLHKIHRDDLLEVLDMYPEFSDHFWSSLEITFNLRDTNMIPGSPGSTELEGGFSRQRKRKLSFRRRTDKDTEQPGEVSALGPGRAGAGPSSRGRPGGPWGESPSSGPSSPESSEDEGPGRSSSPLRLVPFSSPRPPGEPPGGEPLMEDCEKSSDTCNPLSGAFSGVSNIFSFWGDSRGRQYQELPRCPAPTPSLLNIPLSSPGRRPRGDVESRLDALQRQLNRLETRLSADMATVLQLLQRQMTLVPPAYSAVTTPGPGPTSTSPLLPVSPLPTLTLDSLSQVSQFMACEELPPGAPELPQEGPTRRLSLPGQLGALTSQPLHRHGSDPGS
row,SMILES,"hERG current change (%, negative = inhibition) at 1uM [%]"
1,O=C1NC(=O)N(CCC2=CCCCC2)C(=O)/C1=C/c1ccc(O)cc1,2.46
2,O=C(N/C=N/OCc1ccc(Cl)cc1Cl)NOCc1c(Cl)cccc1Cl,6.81
3,c1ccc(-c2ncc(-c3ccn[nH]3)s2)cc1,9.65
4,CC1(C)CC(=O)C(C=Nc2cc(C(=O)c3ccccc3)ccc2N)=C(O)C1,1.02
5,CC(NS(=O)(=O)c1ccccc1)C1CC2CCC1C2 (stereo not shown),8.94
6,C=CCn1c(-c2ccccc2)nc2nc3ccccc3nc21,9.69
7,N#CC1(NC(=O)COC(=O)C2=COCCO2)CCCCC1,5.66
8,Nc1nc(Nc2ccccc2)nc(N2CCCC2)c1[N+](=O)[O-],7.03
9,COc1cccc(C(=O)Nc2ccc(F)c(F)c2F)c1,1.96
10,CCc1nnc(NC(=O)CCC(=O)NCCc2ccccc2)s1,14
11,CCN(C(=O)COC(=O)c1nn(-c2ccccc2)c(=O)c2ccccc12)C1CCS(=O)(=O)C1 (stereo not shown),-11.8
12,COc1cccc(OC)c1C(=O)Nc1nc(COc2ccccc2)cs1,13.5
13,CC(C)Cn1cc(F)c(=O)n(CC(C)C)c1=O,17.7
14,COc1cccc(NC(=O)CSc2nnc(Cn3cnc([N+](=O)[O-])n3)n2C)c1,16.3
15,O=C(Cc1ccc([N+](=O)[O-])cc1)N1CCCc2ccccc21,-5.83
16,Cc1cc(-c2ccccc2)nc(N/N=C/c2ccccc2F)n1,13.3
17,O=S(=O)(NCC(c1cccnc1)N1CCN(c2ccccc2)CC1)c1cccs1 (stereo not shown),-16.1
18,FC(F)(F)c1ccc2c(c1)N1CCCC1CN2 (stereo not shown),-2.23
19,Cc1cc(S(=O)(=O)Nc2ccc3cn[nH]c3c2)c(C)cc1Cl,2.93
20,COc1ccc(-c2cc(C(=O)N(C)CCc3ccc(OC)c(OC)c3)c3ccccc3n2)cc1,7.94
21,COc1ccc(Cl)cc1NC(=O)COC(=O)Cc1cccs1,6.22
22,O=C(CSc1ccc2ccccc2n1)N1CCC(c2noc3ccc(F)cc23)CC1,9.76
23,CCNc1nc(NCC)n2c(SCC(=O)O)nnc2n1,14.4

row,SMILES,"hERG current change (%, negative = inhibition) at 1uM [%]"
1,COc1ccc(-c2cc(C(F)(F)F)n3nc(C(=O)N4CCCCC4)cc3n2)cc1,4.13
2,COC(=O)c1ccc(NC(=S)NC2CCCCC2)cc1,0.326
3,CCOC(=O)C1CCN(C(=O)CCc2nnc3ccc(NCCCN4CCCC4=O)nn23)CC1,15.7
4,Cc1ccc(-n2c(-c3ccncc3)nnc2-c2ccco2)cc1,8.2
5,c1ccc(C2=NNC(=NC3CC3)SC2)cc1,-0.969
6,O=C(CSC1=NCCS1)NC1CCCCC1,13.9
7,COc1cc(/C=N/NC(=S)NCCc2ccccc2)cc(OC)c1OC,13.7
8,CCOC(=O)C(Cc1ccccc1)C(=O)Nc1ccccc1C (stereo not shown),7.9
9,Cc1ccc(N2C(=O)c3ccccc3NC2c2ccccc2O)cc1 (stereo not shown),14.9
10,Cc1csc(SCC(=O)Nc2ccccc2C)n1,11.4
11,O=C(O)c1cccc(-n2cccc2/C=C2/NC(=O)N(Cc3ccccc3F)C2=O)c1,13.7
12,COc1ccc(C(C)NC(=O)c2ccccc2)cc1 (stereo not shown),4.09
13,CCCCN1C2CCCC1CC(NC(=O)c1cccc(OC)c1)C2 (stereo not shown),-2.96
14,CCn1c(C)cc(/C=C2\C(=O)NC(=O)N(c3ccccc3C)C2=O)c1C,6.54
15,COc1cc(NC(=S)NCCc2ccccc2)c(OC)cc1NC(=O)C(C)C,1.49
16,O=C(NC1CCCC1)C1CCCN(S(=O)(=O)c2ccc(-n3cnnn3)cc2)C1 (stereo not shown),3.92
17,Cn1c(=O)c2c(nc(N3CCN(Cc4ccccc4)CC3)n2CC(=O)c2ccccc2)n(C)c1=O,0.691
18,COc1cccc(C2=N/C(=C\N(C)C)C(=O)O2)c1,9.83
19,CC(C)CN(CCCNC(=O)CN1C(=O)COc2ccc(S(=O)(=O)N3CCOCC3)cc21)CC(C)C,20.2
20,Cc1cccc(NC(=O)CSc2nnnn2-c2cccnc2)c1,1.51
21,CCN1CCN(C(c2ccc(C(F)(F)F)cc2)c2ccc3cccnc3c2O)CC1 (stereo not shown),-1.02
22,O=C(Nc1ccc(F)cc1)c1ccccc1,4.8
23,Cc1c(-n2c(O)c(C3=c4ccccc4=NC3=O)sc2=O)c(=O)n(-c2ccccc2)n1C,1.17
